# Results taken from PubChem BioAssay AID1347073 (National Center for Advancing Translational Sciences (NCATS), 2019).
# The whole screen tested about 45,000 compounds, of which about 200 (0.44%) were called active. Inconclusive results (about 7%) are left out. The call rests on the fitted dose curve; in most records, active means well fitted activation curve with a large enough effect; inconclusive means small, poorly fitted or top-dose-only effect; inactive means no such curve, though single readings can be large or run the other way. Some of the results follow.
# Experiment: qHTS of TDP-43 Inhibitors: NCGC Sytravon Library Screen; further: 0% is about no effect; nearly all actives have a fitted effect of over 55% in size
# Details: yeast TDP-43 toxicity rescue, BacTiter-Glo growth, 24 h; series mostly up to 46.1 µM; growth rescue (activation): at the top concentration
# Outline: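 TDP-43-expressing yeast, pregrown in raffinose, seeded at OD600 0.02 in galactose medium with compound for 24 hr at 30 deg C. Growth read by BacTiter-Glo luminescence, so rescue of toxicity appears as activation.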
SMILES,growth rescue (activation),Potency
COc1cccc(NC(=O)N2CCN(c3ccc(C(F)(F)F)cn3)CC2)c1,inactive: -15.5%,
CC1CN(C(=O)N2CCCCC2)CCN1C(=O)N1CCCCC1 (stereo not given),inactive: 2.2%,
Cc1ccc(O)c(NC(=O)C2CCCCC2)c1,inactive: -25%,
Cc1ccc(CNC(=O)CN2C(=O)NC(C)(c3ccc(Cl)cc3)C2=O)cc1 (stereo not given),inactive: 2.32%,
CC(/C=N/NC(=O)c1cc(-c2ccc(C)s2)[nH]n1)=C\c1ccccc1,inactive: 10.5%,
Cc1ccc(/C=C/C(=O)Nc2ccc([N+](=O)[O-])c(NC(=O)/C=C/c3ccc(C)o3)c2)o1,inactive: -10.7%,
COc1ccccc1NC(=O)CCN1CCCCC1,inactive: 8.13%,
CCC(C)/C(C)=N/NC(=O)CNS(=O)(=O)c1ccc([N+](=O)[O-])cc1 (stereo not given),inactive: 10.4%,
CC(=O)Nc1ccc(S(=O)(=O)NCCSCc2cccc(Cl)c2)cc1,inactive: 20.5%,
COc1cccc(OCCSc2nc(C)c(Cc3ccccc3)c(=O)[nH]2)c1,,inactive
N#C/C(=C\c1cccc(OC(=O)c2cccs2)c1)C(N)=O,inactive: 5.43%,
O=C(O)CSc1nnc(-c2ccncc2)n1Cc1ccccc1,inactive: 2.64%,
CCS(=O)(=O)N1CCN(S(=O)(=O)c2ccc3c(c2)OCCO3)CC1,inactive: -13.5%,
COc1ccc(N(CC(=O)Nc2ccccc2C(=O)N2CCOCC2)S(=O)(=O)c2ccc(F)cc2)cc1,inactive: 15.5%,
CCn1c2ccccc2c2nnc(SCC(=O)NC3CCS(=O)(=O)C3)nc21 (stereo not given),inactive: 7.97%,
O=C1NC(=O)C2(CCC(C(=O)O)C2)N1 (stereo not given),inactive: 5.82%,
O=C(Nc1ccc(SC(F)(F)F)cc1)c1ccccn1,inactive: 19.4%,
Cc1ccc(S(=O)(=O)NCC(C)n2nc(C)nc2C)cc1 (stereo not given),inactive: 7.08%,
CN(C)c1ccc(CNc2ccccn2)cc1,inactive: -5.83%,
CC1CN(C)C(C)C/C1=N/Oc1ccccc1[N+](=O)[O-] (stereo not given),inactive: 5.75%,
Cc1cc2cc(CN(Cc3cccs3)C(=S)NCC3CCCO3)c(=O)[nH]c2cc1C (stereo not given),inactive: 13.5%,
Nc1ccc(S(=O)(=O)O)cn1,,inactive
CC1(C(=O)NS(=O)(=O)c2ccc(Cl)cc2)CCN1C(=O)C1CC1 (stereo not given),inactive: 3.71%,
CC(=O)Nc1ccc(SCC(=O)N(C)CC(=O)Nc2ccccc2Cl)cc1,inactive: -6.68%,
CCCCNS(=O)(=O)c1ccc(C)c(-c2nnc3c4ccccc4c(C)nn23)c1,inactive: 8.58%,
O=C(NN=C1CCCC1)c1ccccc1OCc1ccc(Cl)cc1,inactive: 11.1%,
Cc1cc(C)cc(OCC(=O)N2N=C(c3cccnc3)CC2(O)C(F)(F)F)c1 (stereo not given),inactive: 25.7%,
CCN(CC)c1ncnc2c1ncn2[C@H]1CN(Cc2cc(OC)c(OC)c(OC)c2)C[C@@H](CO)O1,inactive: 10.2%,
COc1ccc(/C=N/N=C2/CC(C)(C)Cc3n[nH]c(=O)cc32)cc1,inactive: -0.388%,
COc1ccc(-n2c(-c3ccc(Cl)cc3Cl)n[nH]c2=S)c(OC)c1,inactive: 16.1%,
